# In all, about 310,000 compounds went through this assay and about 2,200 (0.71%) showed an effect of 50% or more. The effect is printed as a negative number. The list shows a part of the results.
# Target: human ether-à-go-go-related gene (hERG) potassium channel (human, UniProt Q12809)
# Assay: primary screen, population patch clamp on CHO cells stably expressing hERG
# Sequence of human ether-à-go-go-related gene (hERG) potassium channel (Q12809 whole entry, looked up): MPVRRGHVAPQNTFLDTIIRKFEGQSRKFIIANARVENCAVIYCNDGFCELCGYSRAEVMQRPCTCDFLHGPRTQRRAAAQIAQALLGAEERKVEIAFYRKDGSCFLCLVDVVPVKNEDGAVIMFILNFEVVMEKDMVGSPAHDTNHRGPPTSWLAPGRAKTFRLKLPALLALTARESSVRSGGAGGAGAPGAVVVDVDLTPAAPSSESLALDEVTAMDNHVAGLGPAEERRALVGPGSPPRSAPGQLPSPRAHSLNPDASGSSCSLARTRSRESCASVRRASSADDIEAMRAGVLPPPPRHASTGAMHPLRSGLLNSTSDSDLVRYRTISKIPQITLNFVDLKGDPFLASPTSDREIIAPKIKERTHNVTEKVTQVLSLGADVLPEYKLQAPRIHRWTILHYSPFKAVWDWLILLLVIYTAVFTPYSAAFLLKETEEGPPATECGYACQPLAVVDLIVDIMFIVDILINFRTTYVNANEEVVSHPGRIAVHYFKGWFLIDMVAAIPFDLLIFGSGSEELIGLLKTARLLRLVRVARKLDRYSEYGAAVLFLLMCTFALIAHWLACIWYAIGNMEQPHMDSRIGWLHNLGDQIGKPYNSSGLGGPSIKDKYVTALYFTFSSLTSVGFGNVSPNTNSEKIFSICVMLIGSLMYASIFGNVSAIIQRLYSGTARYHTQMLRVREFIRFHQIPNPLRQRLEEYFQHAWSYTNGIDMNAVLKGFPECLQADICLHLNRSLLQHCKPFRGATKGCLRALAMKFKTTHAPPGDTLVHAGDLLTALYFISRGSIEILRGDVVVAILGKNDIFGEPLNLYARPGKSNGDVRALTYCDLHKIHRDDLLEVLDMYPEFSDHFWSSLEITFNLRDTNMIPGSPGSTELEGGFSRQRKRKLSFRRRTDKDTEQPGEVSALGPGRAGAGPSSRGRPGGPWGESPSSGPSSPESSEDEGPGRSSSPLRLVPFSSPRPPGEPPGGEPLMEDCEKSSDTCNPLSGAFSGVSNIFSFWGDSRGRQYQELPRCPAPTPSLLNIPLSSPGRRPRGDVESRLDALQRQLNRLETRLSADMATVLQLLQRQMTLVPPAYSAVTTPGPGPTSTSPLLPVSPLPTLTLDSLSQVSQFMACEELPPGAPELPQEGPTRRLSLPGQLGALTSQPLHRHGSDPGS
row,SMILES,"hERG current change (%, negative = inhibition) at 1uM [%]"
1,CC(C)NC(=O)c1c(CSc2ccc(Cl)cc2)noc1C(=O)NCc1ccccc1,-2.81
2,CC(C)CN1CCN(Cc2cc(F)ccc2-n2cccn2)CC1CCO (stereo not shown),3.57
3,COc1cc(C(=O)NCCC(=O)NC2CCCCC2)cc(OC)c1OC,14.9
4,Cc1cccn2cc(CCNS(=O)(=O)c3cccc([N+](=O)[O-])c3)nc12,7.97
5,O=C(CSc1ccc(Br)cc1)N1CCN(C(=O)c2ccco2)CC1,-34.2
6,Cc1ccc2[nH]c(C)c(CCNCc3cccnc3)c2c1.Cl,14.7
7,S=C(Nc1ccc(OCc2ccccc2)cc1)Nc1cccc(Cl)c1Cl,6.91
8,O=c1[nH]c(/C=C/c2ccc(OC(F)F)cc2)nc2c1cnn2-c1ccccc1,27.5
9,COc1ccc(OC)c(C(c2nnnn2C2CCCC2)N2CCN(c3ccc(F)cc3)CC2)c1 (stereo not shown),-13.6
10,Cc1ccc2c(c1)C(O)(C1COC(C)(C)CC1=O)C(=O)N2C (stereo not shown),3.32
11,COC(=O)COc1ccc(/C=N/NC(=O)CN(c2ccccc2OC)S(=O)(=O)c2ccccc2)cc1,12.1
12,O=C1CCN(C(=O)CNC(=O)Cc2ccccc2)CC1,8.64
13,O=C(OCC(=O)N1CCCCC1)c1c[nH]c2ccccc12,-0.139
14,Cc1ccc(N(Cc2ccccc2)C(=O)c2cccc(S(=O)(=O)N3CCOCC3)c2)cc1,-15.3
15,COc1cc2c(cc1NC(=O)c1cncc(Br)c1)oc1ccccc12,9.75
16,CSc1cccc(NC(=O)COc2cccc3ccccc23)c1,15.8
17,O=C(Nc1ccccc1)Nc1cccc(C(F)(F)F)c1,16.6
18,Clc1ccc(-c2nc3ccc(Cl)cn3c2CN2CCCCC2)cc1,14.2
19,CC(C)(C)C(=O)Nc1cc(NC(=O)C(C)(C)C)cc(C(=O)Nc2c[nH]c(=O)[nH]c2=O)c1,6.12
20,CC1=NC(C(F)(F)F)(C(F)(F)F)C(C#N)=C(C)N1,7.7
21,CCCCc1sc(-c2c(C#N)c(N)nc3c2CCCCC3)cc1[N+](=O)[O-],0.421
22,O=C(/C=C/c1cccc([N+](=O)[O-])c1)N1CC[C@@]2(O)CCCC[C@H]2C1,-2.42

row,SMILES,"hERG current change (%, negative = inhibition) at 1uM [%]"
1,CCOC(=O)NNC(=O)NCCCCCCNC(=O)NNC(=O)OCC,14.8
2,N=c1oc2ccc(Br)cc2cc1C(=O)NC1CCCCCC1,-4.24
3,CC(C)CNC(=O)COc1ncnc2ccccc12,13.2
4,COc1cc(C=C2C(=O)NC(=O)NC2=O)cc(OC)c1OC,13.9
5,Cc1onc(-c2ccccc2)c1C(=O)Oc1cccnc1,1.87
6,COc1ccc(NS(=O)(=O)c2cccc(C(=O)N3CCN(Cc4ccc5c(c4)OCO5)CC3)c2)cc1,-3.97
7,CCn1cc(C(=O)N2CCc3ccccc32)c(=O)c2cc(S(=O)(=O)N(C)C3CCCCC3)ccc21,3.05
8,O=C(c1cccc([N+](=O)[O-])c1)N1CCN(c2ccc(N3CCOCC3)nn2)CC1,6.94
9,CN(C(=O)c1ccc(NC(=O)C2CC=CCC2C(=O)O)cc1)c1ccccc1 (stereo not shown),9.64
10,CCc1ccc(NC(=O)CNC(=O)c2cn(-c3ccccc3OC)c(=O)c3ccccc23)cc1,10.9
11,CCC(=O)c1ccc(OC(=O)c2ccc(Br)o2)cc1,12.9
12,FC(F)(F)c1ccc(CN2C[C@@H]3C(c4ccccc4)C4(c5cccnc5)CC3(C4)[C@H]2c2ccccc2)cc1 (stereo partly shown),1.03
13,Cc1ccc(-c2nnc3c4ccccc4c(C)nn23)cc1S(=O)(=O)N1CCN(CCO)CC1,-8.5
14,O=C(COc1ccc(S(=O)(=O)NC2CCCCC2)cc1Cl)NCc1cccnc1,0.156
15,CC(C)c1ccc(C2c3[nH]c4ccccc4c3C[C@H]3C(=O)N(c4ccccc4C(=O)N4CCC[C@@H]4C(=O)O)C(=O)N23)cc1 (stereo partly shown),7.87
16,O=C(c1cc(-c2ccncc2)nc2ccccc12)N1CCN(c2ccccc2O)CC1,-0.758
17,Cc1ccc(Oc2nnc(-c3cccs3)c3ccccc23)cc1C,-8.41
18,CCOc1ccc(C(=O)NC(=S)Nc2ccccc2OC)cc1[N+](=O)[O-],3.79
19,Cc1cc(C)c(NC(=O)NC2CCCCC2)c(C)c1,13.7
20,Cc1ccc(C(=O)C(C)OC(=O)c2cc3cc([N+](=O)[O-])ccc3oc2=O)cc1 (stereo not shown),-0.781
21,O=c1[nH]c2ccccc2c2nc(-c3cccc(S(=O)(=O)N4CCCC4)c3)nn12,17.4

# Reference: paper PMC4336329 (PLoS ONE, 2015)
